Experimental data from US20180057551A1 (AMYLONIX, published 2018).
Numbering of substitutions follows the chain as printed.

B1: ABPP095b-LEHHHHHH (designed binder)
chain: AGGERVYLPNLNADQLCAFIRSLEDDPSQSSELLSEAKKLSESQAPASSSSGSSSSGRASAGGERVYLPNLNADQLCAFIRSLEDDPSQSSELLSEAKKLSESQAPKLEHHHHHH
notes: scaffold mutated ABPP095
B2: ABPP095a-LEHHHHHH (designed binder)
chain: B1 chain with S31A, E32N, S35A, S43A, S91A, E92N, S95A, S103A
notes: scaffold mutated ABPP095
B3: ABPP095c-LEHHHHHH (designed binder)
chain: B1 chain with N12T, S22K, N72T, S82K
notes: scaffold mutated ABPP095

Legend:
[1] = target: T1, human Aβ1-40 peptide (human, biotin at the C-terminus (flow cytometry, Examples 2-4) or at the N-terminus (SPR, ELISA); unlabeled plus Alexa488/Alexa647-labeled in FCS); assay: SPR Biacore 2000, biotinylated peptide on SA chip, 1:1 Langmuir
T1 construct: synthetic peptide (AnaSpec); one entry for all labelled forms, label named under assay; also called hAβ1-40; Aβ40

[2] = target: T2, human Aβ1-42 peptide (human, N-terminal biotin in SPR (Example 15); unlabeled in Example 7); assay: as above
T2 construct: also called hAβ1-42

| Binder | koff [1] [s⁻¹] | kon [1] [M⁻¹ s⁻¹] | koff [2] [s⁻¹] | kon [2] [M⁻¹ s⁻¹] |
| --- | --- | --- | --- | --- |
| B1 | 0.00068 | 50000 | 0.0015 | 100000 |
| B2 | 0.0003 | 74000 | 0.00062 | 120000 |
| B3 | 0.00019 | 81000 | 0.00036 | 140000 |
